This note sets out measurements from the supplement of paper PMC4604168 (melanoma cell lines).

Molecules are shown by their SMILES. The list shows a part of the results. Single values are uncertain, as repeats are few or missing.

Some test systems named below: WM115; WM1716; WM1745; WM3526; WM3619; WM451Lu.
What all share (assay): cell count relative to DMSO control; melanoma cells; higher = more viable cells
Conditions in all cases: library dose: low library concentration; 72 h
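Further: cell number obtained by counting DAPI-stained nuclei in high-throughput microscope images with image analysis software, screen run in 1,536-well plates.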

With `Cc1cn(-c2cc(NC(=O)c3ccc(C)c(Nc4nccc(-c5cccnc5)n4)c3)cc(C(F)(F)F)c2)cn1` [nilotinib] + CN(c1ncccc1CNc1nc(Nc2ccc3c(c2)CC(=O)N3)ncc1C(F)(F)F)S(C)(=O)=O [PF562271] (first compound 0.2 µM, partner dose 0.08 µM), the cell count stood at 94.5% in the experiment on WM115; 87.7% in the experiment with WM1716; 63.9% in the experiment on WM1745; 101% in the experiment with WM3526; 126% with WM3619; 92.1% with WM451Lu.
In the case of `Cc1cn(-c2cc(NC(=O)c3ccc(C)c(Nc4nccc(-c5cccnc5)n4)c3)cc(C(F)(F)F)c2)cn1` [nilotinib] + Cc1ccc(NC(=O)c2cccc(N(C)C)c2)cc1NC(=O)c1ccc(O)cc1 [ZM336372] (first compound 0.2 µM, partner dose 2 µM), the cell count with WM115 came to 112%; with WM1716, 106%; in the experiment with WM1745, 91.6%; in the experiment on WM3526 it was 110%; in the experiment with WM3619 it was 76.6%; in the experiment on WM451Lu, 134%.
Turning to `COc1ccc(C2=N[C@@H](c3ccc(Cl)cc3)[C@@H](c3ccc(Cl)cc3)N2C(=O)N2CCNC(=O)C2)c(OC(C)C)c1` [Nutlin-3] + CCN(CC)CCNC(=O)c1c(C)[nH]c(/C=C2\C(=O)Nc3ccc(F)cc32)c1C [sunitinib] (first compound 0.1 µM, partner dose 0.4 µM), the cell count was found to be 99.3% with WM115; 129% in the experiment with WM1716; 85.2% with WM1745; 87.3% with WM3526; 96.3% in the experiment on WM3619; 106% with WM451Lu.
On to `Cc1cn(-c2cc(NC(=O)c3ccc(C)c(Nc4nccc(-c5cccnc5)n4)c3)cc(C(F)(F)F)c2)cn1` [nilotinib] + N#Cc1c(O)c2c(-c3ccc(-c4ccccc4O)cc3)csc2[nH]c1=O [A769662] (first compound 0.2 µM, partner dose 2 µM), for which the cell count with WM115 was 112%; in the experiment on WM1716 it was 89.2%; in the experiment on WM1745 it was 99.8%; with WM3526 it was 89.1%; with WM3619, 112%; in the experiment with WM451Lu, 108%.
As to `Cc1cc(Nc2cc(N3CCN(C)CC3)nc(/C=C/c3ccccc3)n2)n[nH]1` + CC(C)CCN1c2nc(Nc3cc(F)c(O)c(F)c3)ncc2N(C)C(=O)C1C [BID1870] (first compound 0.04 µM, partner dose 0.2 µM), the cell count came out at 81.4% in the experiment with WM115; 91.8% in the experiment with WM1716; 93.5% in the experiment with WM1745; 106% in the experiment with WM3526; 104% in the experiment on WM3619; 97% in the experiment on WM451Lu.
`COc1ccc(C2=N[C@@H](c3ccc(Cl)cc3)[C@@H](c3ccc(Cl)cc3)N2C(=O)N2CCNC(=O)C2)c(OC(C)C)c1` [Nutlin-3] + Nc1ncn([C@H]2C[C@H](O)[C@@H](CO)O2)c(=O)n1 [decitabine] (first compound 0.1 µM, partner dose 0.1 µM): the cell count in the experiment on WM115 turned out to be 75.4%; in the experiment with WM1716, 77.7%; with WM1745, 88.8%; in the experiment with WM3526, 115%; with WM3619 it was 81.6%; in the experiment on WM451Lu, 118%.
On to `COc1ccc(C2=N[C@@H](c3ccc(Cl)cc3)[C@@H](c3ccc(Cl)cc3)N2C(=O)N2CCNC(=O)C2)c(OC(C)C)c1` [Nutlin-3] + CO[C@@H]1[C@H](N(C)C(=O)c2ccccc2)C[C@H]2O[C@]1(C)n1c3ccccc3c3c4c(c5c6ccccc6n2c5c31)C(=O)NC4 [Midostaurin] (first compound 0.1 µM, partner dose 0.08 µM), for which the cell count in the experiment with WM115 was 78.9%; with WM1716, 70.5%; in the experiment on WM1745, 82.1%; in the experiment with WM3526, 92.5%; in the experiment with WM3619, 67.1%; with WM451Lu, 94.2%.
With `CC(C)C[C@H](NC(=O)[C@H](Cc1ccccc1)NC(=O)c1cnccn1)B(O)O` [Bortezomib] + O=C(O)C(=O)Nc1sc2c(c1C(=O)O)CCNC2 [TCS401] (first compound 0.001 µM, partner dose 1.66667 µM), the cell count amounted to 96.9% with WM115; 40.3% with WM1716; 69.4% with WM1745; 80.6% in the experiment with WM3526; 23.2% in the experiment on WM3619; 92.2% in the experiment on WM451Lu.
As to `COc1ccc(C2=N[C@@H](c3ccc(Cl)cc3)[C@@H](c3ccc(Cl)cc3)N2C(=O)N2CCNC(=O)C2)c(OC(C)C)c1` [Nutlin-3] + Nc1cccc2c1CN(C1CCC(=O)NC1=O)C2=O [lenalidomide] (first compound 0.1 µM, partner dose 1 µM), the cell count in the experiment with WM115 is 94.7%; in the experiment on WM1716 it was 83.3%; with WM1745, 86.3%; with WM3526, 91.6%; with WM3619, 87.6%; with WM451Lu it was 104%.
Turning to `COc1ccc(C2=N[C@@H](c3ccc(Cl)cc3)[C@@H](c3ccc(Cl)cc3)N2C(=O)N2CCNC(=O)C2)c(OC(C)C)c1` [Nutlin-3] + COc1cc2ncnc(Nc3ccc(Oc4ccccc4)cc3)c2cc1OC [SrcI1] (first compound 0.1 µM, partner dose 2 µM), the cell count in the experiment on WM115 stood at 89.9%; with WM1716 it was 95.5%; in the experiment on WM1745, 88.9%; in the experiment with WM3526, 90%; with WM3619, 93.4%; in the experiment on WM451Lu, 93.1%.
On to `CC(C)C[C@H](NC(=O)[C@H](Cc1ccccc1)NC(=O)c1cnccn1)B(O)O` [Bortezomib] + Nc1ccn([C@@H]2O[C@H](CO)[C@@H](O)C2(F)F)c(=O)n1 [gemcitabine] (first compound 0.001 µM, partner dose 0.0004 µM), for which the cell count in the experiment with WM115 turned out to be 119%; in the experiment on WM1716, 26.6%; in the experiment with WM1745 it was 64.5%; with WM3526, 81.2%; in the experiment on WM3619, 15.6%; in the experiment on WM451Lu, 90.2%.
